According to US20250057158A1 (priority 2021, published 2025):

Tested on: cucumber bacterial leaf blight (Pseudomonas syringae pv. lachrymans)
Settings: treatment 7 days and 1 day before pathogen; for disease severity (score 0 to 5), cucumber bacterial leaf blight: 7 days after pathogen, water control group 4.4; for control value, cucumber bacterial leaf blight: from disease severity; for control value, cucumber bacterial leaf blight / growth inhibition of cucumber: vs untreated group

SMILES: CC[C@H](C)[C@H](N)C(=O)O [isoleucine]
- disease severity (score 0 to 5), cucumber bacterial leaf blight: 3.6
- control value, cucumber bacterial leaf blight: 18%
- growth inhibition of cucumber: no growth inhibition phenomenon was observed

SMILES: CC(C)[C@H](N)C(=O)O [valine]
- disease severity (score 0 to 5), cucumber bacterial leaf blight: 2.7
- control value, cucumber bacterial leaf blight: 39%
- growth inhibition of cucumber: no growth inhibition phenomenon was observed

SMILES: CSC(=O)c1cccc2nnsc12 [BTH, benzo(1,2,3)-thiadiazole-7-carbothioic acid S-methyl ester, reference compound]
- growth inhibition of cucumber: growth were inhibited
